In patent US20180312542A1, “ENDOSOMAL ESCAPE PEPTIDES” (priority 2015, published 2018):

Test system: HeLa cells transfected with mCherry-AP
Assay: BirA translocation assay (mCherry-AP biotinylation, western blot)
Format: cell-based
Conditions: 250 nM, 500 nM, and 1 μM

B1: +36 GFP-BirA: +36 GFP fused to evolved biotin ligase BirA, SEQ ID NO: 80 (protein)
chain: MGGGSGGSGGSGGSGGSGGSGGSGGSGGSSKGERLFRGKVPILVELKGDVNGHKFSVRGKGKGDATRGKLTLKFICTTGKLPVPWPTLVTTLTYGVQCFSRYPKHMKRHDFFKSAMPKGYVQERTISFKKDGKYKTRAEVKFEGRTLVNRIKLKGRDFKEKGNILGHKLRYNFNSHKVYITADKRKNGIKAKFKIRHNVKDGSVQLADHYQQNTPIGRGPVLLPRNHYLSTRSKLSKDPKEKRDHMVLLEFVTAAGIKHGRDERYKTGGSGGSGGSGGSGGSGGSGGSGGSGG[letters of about 300 residues not shown]GGSHHHHHH
Question: With B1 as the molecule, how does the “AP-biotinylation across treatment concentrations” value read?
Answer: dose-dependent increase
